Source: PubChem BioAssay AID686970 (National Center for Advancing Translational Sciences (NCATS), 2013)
In all, about 360,000 compounds went through this assay and about 6,000 (1.7%) were called active. The shares of active, inactive and inconclusive entries below differ from those in the screen. The call rests on the fitted dose curve; in most records, active means well fitted cell-killing curve with a large enough effect; inconclusive means small, poorly fitted or top-dose-only effect, or effect the other way; inactive means flat fitted curve, though single readings scatter. Potencies of inconclusive entries are left out as doubtful fits.

test: qHTS for induction of synthetic lethality in tumor cells producing 2HG: qHTS for the HT-1080-NT fibrosarcoma cell line; conditions: HT-1080-NT fibrosarcoma viability, CellTiter-Glo ATP luminescence, 48 h; activity, negative = less viability: at 46.1 µM (top of the series) unless noted;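 further: NT is the 2HG producing partner of a matched IDH1 knockdown line; nearly all actives have a fitted effect of over 55% in size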;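 on activity, negative = less viability: 0% = DMSO-treated cells and -100% = media-only wells without cells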
Outline: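 Fibrosarcoma NT cells, 750 per well in 5% FBS RPMI, were exposed to compound for 48 hours. Viability: CellTiter-Glo luminescence.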
Potency means the concentration at half of the fitted maximal effect; tags describe the fitted curve by direction and shape.

SMILES	Potency	activity, negative = less viability
CN1CCN(c2ccc(NC(=O)COc3cccc4ccccc34)cc2)CC1	inconclusive [cytotoxic, single point]	
CN(C)c1cccc(N(C)C)c1CNC(=O)NC(=O)c1c(F)cccc1F	inconclusive [cytotoxic, single point]	
Cc1ccc(OCC(=O)Nc2ccc(O)c(-c3nc4ccccc4o3)c2)cc1	inconclusive [cytotoxic, full curve, poor fit]	
COc1cc(SC#N)ccc1N=Cc1c(C)[nH]n(-c2ccc(C)cc2)c1=O	active: 25.9 µM	
COc1ccc(NC(=O)COC(=O)C2CC(=O)N(CCc3ccc(OC)c(OC)c3)C2)cc1Cl (centres undefined)		inactive: 3.82%
CC1(C(=O)Nc2ccc(Cl)cc2)Cc2c(-c3ccc(C(N)=O)cc3)ccnc2O1 (centres undefined)	inconclusive [cytotoxic, partial curve]	
CC(C)(CO)C(O)C(=O)NCCCO (centres undefined)	inconclusive [rising, partial curve, poor fit]	
Cc1cccc(NC(=O)Nc2cccc(C)n2)n1		inactive: 1.84%
O=C(O)c1cc(-c2ccccc2)n(-c2ccc(Cl)cc2)n1		inactive: -4.97%
NS(=O)(=O)c1ccc(CCNc2ccn3nc(-c4ccc(OCCN5CCOCC5)cc4)cc3n2)cc1	inconclusive [cytotoxic, single point]	
Cn1c(=O)c2cc(NC(=O)Cc3cccnc3)ccc2n1-c1ccc2ccccc2c1	inconclusive [cytotoxic, single point]	
CC(=Cc1ccccc1)C=C1SC(=S)N(CCCC(=O)Nc2ccc(C(=O)O)cc2)C1=O	inconclusive [cytotoxic, partial curve]	
CC(C)Cc1ccc(-c2cc3nc(NCCCn4ccnc4)ccn3n2)cc1	active: 16.4 µM	
O=C(NNc1ccnc2cc(Cl)ccc12)C1CCCCC1	active: 3.66 µM	
O=[N+]([O-])c1ccc(Oc2ccc(S(=O)(=O)N3CCOCC3)cc2)cc1	inconclusive [cytotoxic, partial curve]	
CCN(CC)C(=O)c1ccc(COc2ccc(Cl)c(C)c2)o1	inconclusive [cytotoxic, single point]	
COC(=O)Nc1ccc(S(=O)(=O)N2CCCc3ccccc32)cc1	active: 8.91 µM	
O=C(Nc1ccc(F)cc1)C(CCc1ccccc1)N1CCN(c2ccncc2)CC1 (centres undefined)	active: 20.6 µM	
NS(=O)(=O)c1ccc(N2N=C(c3ccccc3)CC2c2ccc(Br)cc2)cc1 (centres undefined)	inconclusive [cytotoxic, single point]	
